Measured values published in patent US11547761B1, “Antibody adjuvant conjugates” (The Board of Trustees of the Leland Stanford Junior …, priority 2016, dated 2023).

Experiments:
[1] = test system: human APCs (myeloid cells); experiment: Cytokine secretion from human APCs / myeloid cells (cell free supernatants); type: cell-based; conditions: 36 hours of stimulation; compared to equimolar unconjugated antibody
Method: After 18 hours, cell free supernatants were analyzed for cytokine secretion via cytokine bead arrays; n=3. P-values≤0.05 depicted by *, P-values≤0.01 depicted by **, P-values≤0.001 depicted by ***, P-values≤0.0001 depicted by ****.
2×10^5 APCs were incubated with or without 6.5×10^5 autologous or allogeneic CFSE-labeled tumor cells in 96-well plates (Corning) containing IMDM medium (Gibco) supplemented with 10% fetal bovine serum, 100 U/mL penicillin, 100 μg/mL streptomycin, 2 mM L-glutamine, sodium pyruvate, non-essential amino acids, 50 μM 2-ME and, where indicated, various concentrations of anti-tumor antibody and the indicated adjuvants. […]
While the expression of T cell stimulatory molecules such as CD40, CD86 and HLA-DR is necessary for effective T cell activation, APCs also influence the nature of the ensuing immune response through the secretion of cytokines. Therefore, the capacity of immunoconjugates to elicit cytokine secretion in human APCs following stimulation was investigated as described above.
The capacity of these immunoconjugates to elicit cytokine secretion in human APCs following stimulation was investigated as described in Example 3 above. […]

[2] = test system: human APCs (myeloid cells); experiment: APC-tumor co-culture / myeloid cell stimulation, surface markers by flow cytometry; type: cell-based; conditions: 18 hours of stimulation; compared with the corresponding unconjugated antibody unless the value names another comparator
Excerpt: (§1) Human antigen presenting cells (APCs) were negatively selected from human peripheral blood mononuclear cells obtained from healthy blood donors (Stanford Blood Center) by density gradient centrifugation using a RosetteSep Human Monocyte Enrichment Cocktail (Stem Cell Technologies) containing monoclonal antibodies against CD2, CD3, CD8, CD19, CD56, CD66b and CD235a. Immature APCs were subsequently purified to >97% purity via negative selection using an EasySep Human Monocyte Enrichment Kit without CD16 depletion containing monoclonal antibodies against CD2, CD3, CD19, CD20, CD56, CD66b, CD123 and CD235a.
Tumor cells were resuspended in PBS with 0.1% fetal bovine serum (FBS) at 1 to 10×10^6 cells/mL. Cells were subsequently incubated with 2 μM CFSE to yield a final concentration of 1 μM. The reaction was ended after 2 minutes via the addition of 10 mL complete medium with 10% FBS and washed once with complete medium. Cells were either fixed in 2% paraformaldehyde and washed three times with PBS or left unfixed prior to freezing the cells in 10% DMSO, 20% FBS and 70% medium.
(§2) 2×10^5 APCs were incubated with or without 6.5×10^5 autologous or allogeneic CFSE-labeled tumor cells in 96-well plates (Corning) containing IMDM medium (Gibco) supplemented with 10% fetal bovine serum, 100 U/mL penicillin, 100 μg/mL streptomycin, 2 mM L-glutamine, sodium pyruvate, non-essential amino acids, 50 μM 2-ME and, where indicated, various concentrations of anti-tumor antibody and the indicated adjuvants. Cells and cell-free supernatants were analyzed after 18 hours via flow cytometry.
as §1, with “[…]” for “CD2, CD3, CD8, CD19, CD56, CD66b”, “[…].” for “CD235a.”, “CD14, CD16, CD40, CD86, CD123,” for “CD2, CD3, CD19, CD20, CD56, CD66b, CD123”
as §2, with “antibody.” for “anti-tumor antibody and the indicated adjuvants.”
2×10^5 APCs were incubated with or without 6.5×10^5 allogeneic CFSE-labeled tumor cells in 96-well plates (Corning) containing IMDM medium (Gibco) supplemented with 10% fetal bovine serum, 100 U/mL penicillin, 100 μg/mL streptomycin, 2 mM L-glutamine, sodium pyruvate, non-essential amino acids and, where indicated, various concentrations of unconjugated CD20 antibody, and immunoconjugates of the invention were prepared according to the examples above. Cells and cell-free supernatants were analyzed after 18 hours via flow cytometry or ELISA.

B1: Elotuzumab Boltbody (conjugate, chains of the INN, looked up)
heavy: EVQLVESGGGLVQPGGSLRLSCAASGFDFSRYWMSWVRQAPGKGLEWIGEINPDSSTINYAPSLKDKFIISRDNAKNSLYLQMNSLRAEDTAVYYCARPDGNYWYFDVWGQGTLVTVSS[human IgG1 constant region cut from this listing]
light: DIQMTQSPSSLSASVGDRVTITCKASQDVGIAVAWYQQKPGKVPKLLIYWASTRHTGVPDRFSGSGSGTDFTLTISSLQPEDVATYYCQQYSSYPYTFGQGTKVEIKRTVAAPSVFIFPPSDEQLKSGTASVVCLLNNFYPREAKVQWKVDNALQSGNSQESVTEQDSKDSTYSLSSTLTLSKADYEKHKVYACEVTHQGLSSPVTKSFNRGEC
modifications: adjuvant conjugate
superior: IL-1β secretion from myeloid cells [1] | TNFα secretion from myeloid cells [1] | CD14 downregulation on myeloid cells [2] | CD16 downregulation on myeloid cells [2] | CD40 upregulation on myeloid cells [2] | CD86 upregulation on myeloid cells [2] | CD123 upregulation on myeloid cells [2] | HLA-DR upregulation (expression) on myeloid cells [2]
